Test results as given in article PMC6919601, “Identification of Plasmodium dipeptidyl aminopeptidase allosteric inhibitors by high throughput screening” (PLoS ONE, 2019).
Where “and” joins values, the source holds several entries; their conditions need not be identical. Equal entries are not always repeated. About 230 (0.21%) of roughly 110,000 compounds showed an effect of 50% or more. The list shows a part of the results.
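Also: 30 min substrate incubation versus DMSO and 10 µM JCP410 controls.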

Each compound was assayed against DPAP1 (Plasmodium falciparum, UniProt Q8IIJ9) (assay: primary screen, percent inhibition; read by cleavage of a fluorogenic dipeptide substrate; higher = more effect of the substance).
Sequence of DPAP1 (Q8IIJ9 whole entry, looked up): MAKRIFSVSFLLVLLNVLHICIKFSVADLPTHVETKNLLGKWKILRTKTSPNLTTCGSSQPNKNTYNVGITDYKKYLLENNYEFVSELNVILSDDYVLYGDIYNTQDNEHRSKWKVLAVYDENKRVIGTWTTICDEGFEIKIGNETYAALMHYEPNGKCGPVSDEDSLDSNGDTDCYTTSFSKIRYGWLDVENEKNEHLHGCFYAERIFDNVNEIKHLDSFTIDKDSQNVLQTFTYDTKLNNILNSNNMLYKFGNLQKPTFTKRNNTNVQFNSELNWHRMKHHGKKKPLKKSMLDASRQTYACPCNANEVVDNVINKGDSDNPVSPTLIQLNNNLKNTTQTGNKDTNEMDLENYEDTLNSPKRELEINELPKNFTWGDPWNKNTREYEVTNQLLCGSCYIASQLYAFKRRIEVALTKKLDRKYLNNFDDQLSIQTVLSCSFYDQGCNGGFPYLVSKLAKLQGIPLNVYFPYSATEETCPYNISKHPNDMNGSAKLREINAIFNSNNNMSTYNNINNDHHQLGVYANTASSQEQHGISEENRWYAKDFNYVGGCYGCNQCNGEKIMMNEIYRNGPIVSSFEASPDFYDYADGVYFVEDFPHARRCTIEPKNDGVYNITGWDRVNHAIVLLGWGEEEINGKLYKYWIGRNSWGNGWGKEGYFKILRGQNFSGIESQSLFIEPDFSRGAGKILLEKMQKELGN
Design: species or system P. falciparum D10 trophozoite lysates; single well
With `COc1ccc(CCc2nc(C)cc(CN(C)C)c2O)cc1` the “% Inhibition @ 10 uM” value was 2.38%. With `C=CCOc1ccc(C2c3c(oc4ccccc4c3=O)C(=O)N2c2nc(C)c(C)s2)cc1OCC` (stereo not drawn) the “% Inhibition @ 10 uM” value was 4.06%. `CC(C)(C)c1ccc2c(c1)C1c3ccc(C(C)(C)C)cc3C2C2C(=O)N(c3ccc(-c4ccc(Cl)cc4)cc3)C(=O)C12` (stereo not drawn) was tested, and the “% Inhibition @ 10 uM” value was 3.98%. In the case of `COc1cc(C)c(CN2CC(C)OC(C)C2)cc1C` (stereo not drawn), the “% Inhibition @ 10 uM” value is reported as -5.11%. For `CCOc1ccccc1/C=C(\C#N)c1nc(-c2ccc(C)cc2C)cs1`, the “% Inhibition @ 10 uM” value was 0.912%. In the case of `Cc1cccc(-n2ncc3c(NCCC4=CCCCC4)ncnc32)c1`, the “% Inhibition @ 10 uM” value is reported as 7.63%. In the case of `CCO/C(O)=C1\C(C)=NC(=S)NC1c1cccc(Br)c1` (stereo not drawn), the “% Inhibition @ 10 uM” value is reported as -0.0648%. For `O=C(c1nc(S(=O)(=O)Cc2ccccc2)ncc1Cl)N1CCC(Cc2ccccc2)CC1`, the “% Inhibition @ 10 uM” value was -4.54%. For `Cc1n[nH]c(C)c1Nc1cnn(C23CC4CC(CC(C4)C2C(=O)O)C3)c(=O)c1Cl` (stereo not drawn), the “% Inhibition @ 10 uM” value was 1.15%. In the case of `COc1ccc(-c2noc(CC#N)n2)cc1`, the “% Inhibition @ 10 uM” value is reported as -4.58%. With `O=C(CSc1nc2ccccc2[nH]1)Nc1nnc(-c2ccccc2)s1` the “% Inhibition @ 10 uM” value was -1.6%. `Cc1ccc(C(=O)Nc2ccc(C)c(Cl)c2)cc1` was tested, and the “% Inhibition @ 10 uM” value was -4.08%. With `Cc1nn(C)cc1CNC(=O)c1cc2n(n1)C(C(F)(F)F)CC(c1ccc(Cl)cc1)N2` (stereo not drawn) the “% Inhibition @ 10 uM” value was 3.67%. With `CNC1=NC(=O)CC(C(=O)Nc2cccc(OC)c2)S1` (stereo not drawn) the “% Inhibition @ 10 uM” value was 3.91%. In the case of `CCOc1ccc(NC(=O)c2ccc(Cl)c(Cl)c2)cc1`, the “% Inhibition @ 10 uM” value is reported as -6.33%. `Cc1ccc2oc(C(=O)Nc3sc4c(c3C(=O)NCCc3ccccc3)CCC4)cc(=O)c2c1` was tested, and the “% Inhibition @ 10 uM” value was 0.248%. For `CC1(c2ccccc2)CC(c2ccccc2)=C(C#N)C(=C(C#N)C#N)N1` (stereo not drawn), the “% Inhibition @ 10 uM” value was 13.2%. With `N#CC1=C2c3ccccc3CC3(CCCCC3)N2C(=O)C1=O` the “% Inhibition @ 10 uM” value was -1.98%. In the case of `COc1ccc(N2C(=O)NC(=O)/C(=C/c3ccc(SC)cc3)C2=O)cc1`, the “% Inhibition @ 10 uM” value is reported as -11.8%. In the case of `Brc1ccc(/C=N/c2nc3ccccc3n2CCN2CCCCC2)cc1`, the “% Inhibition @ 10 uM” value is reported as 19.2%. For `COc1ccc(C2C(C(N)=O)=C(C)Nc3nc(SCc4ccccc4Cl)nn32)c(OC)c1` (stereo not drawn), the “% Inhibition @ 10 uM” value was -4.02%. In the case of `CN1C(=O)c2ccccc2C(C(=O)NCc2ccc3c(c2)OCO3)C1c1cn(C)c2ccccc12` (stereo not drawn), the “% Inhibition @ 10 uM” value is reported as 4.63%. For `COc1ccc2oc(=O)c(C(=O)N3CCOCC3)cc2c1`, the “% Inhibition @ 10 uM” value was 3.01%. For `CCn1c2ccccc2c2cc(CN3CCN(c4ccc(Cl)cc4)CC3)ccc21`, the “% Inhibition @ 10 uM” value was -6.21%. `CCc1ccc(CNc2ccc(O)cc2)cc1` was tested, and the “% Inhibition @ 10 uM” value was 1.37%. For `COc1ccc(C2C(C(=O)c3ccc(C)cc3)=C(O)C(=O)N2Cc2cccnc2)cc1` (stereo not drawn), the “% Inhibition @ 10 uM” value was -8.67%. For `COc1ccc(C(=O)Nc2nn3c(-c4ccco4)nnc3s2)cc1`, the “% Inhibition @ 10 uM” value was 0.00665%. With `O=C(CN1CCOCC1)N(C1CCCCC1)C1CCCCC1` the “% Inhibition @ 10 uM” value was -0.999% and 0.565%. For `CC(C)C(=O)N1CCN(c2ccc(NC(=O)Cc3ccccc3)cc2)CC1`, the “% Inhibition @ 10 uM” value was -5.14%. With `O=C(CCNS(=O)(=O)c1ccc2nc(O)ccc2c1)NCc1ccc(Cl)cc1` the “% Inhibition @ 10 uM” value was -4.63%. With `O=C(NCCCN1CCN(Cc2ccccc2)CC1)c1nnc(Cc2ccc(Cl)cc2Cl)o1` the “% Inhibition @ 10 uM” value was 9.59%. `Cc1nn(C(=O)CCC(=O)N2CC(C)CC(C)C2)c2ccccc12` (stereo not drawn) was tested, and the “% Inhibition @ 10 uM” value was 5.39%. With `N#CCNC(=O)[C@H](CC1CCCCC1)NC(=O)c1ccc(F)c(F)c1` the “% Inhibition @ 10 uM” value was -3.49%. In the case of `N#C/C(=C\c1c(Oc2ccc(Cl)cc2)nc2ccccn2c1=O)C(=O)NCC1CCCO1` (stereo not drawn), the “% Inhibition @ 10 uM” value is reported as -4%. With `N#C/C(=C/c1ccc(F)cc1)c1nc(-c2ccccc2)cs1` the “% Inhibition @ 10 uM” value was 3.06%. In the case of `CC(=O)NC1=NN(C(C)=O)C(C)(c2cccc(Br)c2)S1` (stereo not drawn), the “% Inhibition @ 10 uM” value is reported as 1.37%. With `COc1ccc(/C=C2\S/C(=N/c3cccc(C(=O)O)c3)N(C)C2=O)cc1O` the “% Inhibition @ 10 uM” value was 6.98%. With `c1ccc(-c2ccc(-n3cnc4ccccc43)cc2)cc1` the “% Inhibition @ 10 uM” value was -6.88%. For `COc1ccc(C(=O)c2sc3nc(C)c(C(=O)Nc4ccccc4)c(C)c3c2N)cc1`, the “% Inhibition @ 10 uM” value was -0.366%. With `COc1ccc(-c2nnc3n(CCc4ccccc4)c(=O)c4ccccc4n23)c(O)c1` the “% Inhibition @ 10 uM” value was -3.51%. `CC(C)C(NS(=O)(=O)c1cccc2nsnc12)C(=O)NCc1ccccc1Cl` (stereo not drawn) was tested, and the “% Inhibition @ 10 uM” value was -4.1%. For `O=C(CN1CCOCC1)Nc1sc2c(c1C(=O)Nc1ccc(Br)cc1)CCCCC2`, the “% Inhibition @ 10 uM” value was 1.49%. With `CCN(CC)CC(O)COc1ccc(C23CC4CC(CC(C4)C2)C3)cc1` (stereo not drawn) the “% Inhibition @ 10 uM” value was -2.55%. For `CCCS(=O)(=O)N1CCC(C(=O)NC)CC1`, the “% Inhibition @ 10 uM” value was 3.24%. `CC(=O)Nc1cc(-c2cccc(Br)c2)nn1-c1ccccc1` was tested, and the “% Inhibition @ 10 uM” value was -2.39%. In the case of `CCN1CCN(C(C)Cc2ccc(F)cc2)CC1` (stereo not drawn), the “% Inhibition @ 10 uM” value is reported as 0.0792%. For `Cc1cc(C(=O)NCCC(C)C)c2c(C)nn(-c3ccccc3Cl)c2n1`, the “% Inhibition @ 10 uM” value was 0.44%. For `Oc1cccc(CN2CCN(c3cccc(Cl)c3)CC2)c1`, the “% Inhibition @ 10 uM” value was -0.0404%. In the case of `COc1ccc(/C=c2\sc3n(c2=O)CN(c2ccc4c(c2)OCO4)CN=3)cc1OC`, the “% Inhibition @ 10 uM” value is reported as 1.67%. In the case of `CCOC(=O)N1CCC(NCc2c(C(=O)O)n(CC)c3ccccc23)CC1`, the “% Inhibition @ 10 uM” value is reported as -5.05%. For `CCOC(=O)N1CCN(C(=O)CSC2=NN3CCCC(=O)N=C3S2)CC1`, the “% Inhibition @ 10 uM” value was -1.14%. In the case of `COc1ccc(/C=N/N=C(N)N)cc1OC`, the “% Inhibition @ 10 uM” value is reported as -1.03%. In the case of `O=[N+]([O-])c1ccc(-n2nc3ccc4ccccc4c3n2)cc1`, the “% Inhibition @ 10 uM” value is reported as 3.06%. With `CCOCCCNC(=O)c1ccc2[nH]c(C)c(C)c2c1` the “% Inhibition @ 10 uM” value was -0.127%. `CCCCC(=O)Nc1ccc2c(c1)oc1ccccc12` was tested, and the “% Inhibition @ 10 uM” value was -4.57%. With `CCOc1cc2c(cc1/C=C1/NC(=O)N(c3cccc(Cl)c3)C1=O)OCO2` the “% Inhibition @ 10 uM” value was -4.15%. `O=C(O)c1cccc(NS(=O)(=O)c2ccc(Cl)c(C(=O)O)c2)c1` was tested, and the “% Inhibition @ 10 uM” value was -3.55%. For `OCC1CCCCN1Cc1cccc(Cl)c1` (stereo not drawn), the “% Inhibition @ 10 uM” value was -2.36%. With `O=C(Nc1ccccc1Cl)NC1CCCCC1` the “% Inhibition @ 10 uM” value was 3%. `N#CC1=C(N)Oc2cc(O)c(Cl)cc2C1c1ccncc1` (stereo not drawn) was tested, and the “% Inhibition @ 10 uM” value was 2.46%. `CC(C)NC(=O)c1ccc2nc(N3CCCCC3)sc2c1` was tested, and the “% Inhibition @ 10 uM” value was 2.65%. With `O=C(O)c1ccccc1SCCc1ccccn1` the “% Inhibition @ 10 uM” value was 4.22%. `Clc1ccc2c(c1)CC(NCCCN1CCOCC1)c1ccccc1S2` (stereo not drawn) was tested, and the “% Inhibition @ 10 uM” value was -11.2%.
